Experimental data reported in article doi:10.1101/2020.10.06.326603.

Columns and labels:
Conditions in all cases: remark: other sources report otherwise
[1] = target: T1, Escherichia coli IscS (native cysteine desulfurase) (E. coli), P0A6B7; test: SEC
T1 chain: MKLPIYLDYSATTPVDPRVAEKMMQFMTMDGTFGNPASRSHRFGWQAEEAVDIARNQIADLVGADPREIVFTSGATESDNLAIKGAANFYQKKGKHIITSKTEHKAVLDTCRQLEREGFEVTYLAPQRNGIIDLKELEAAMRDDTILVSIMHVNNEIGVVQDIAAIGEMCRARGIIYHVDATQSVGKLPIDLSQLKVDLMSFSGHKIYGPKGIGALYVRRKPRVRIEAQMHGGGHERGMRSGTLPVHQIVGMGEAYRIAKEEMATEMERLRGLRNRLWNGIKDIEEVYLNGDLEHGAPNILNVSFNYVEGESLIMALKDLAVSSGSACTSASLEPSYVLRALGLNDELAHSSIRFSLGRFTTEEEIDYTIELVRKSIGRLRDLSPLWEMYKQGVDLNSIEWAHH

[2] = target: T1, Escherichia coli IscS (native cysteine …); test: SEC
[3] = target: T1, Escherichia coli IscS (native cysteine …)

stoichiometry N [1]: 2 | stoichiometry N [2]: 2 | Kd [3]: 8 nM
B1: Escherichia coli IscS (native cysteine desulfurase), P0A6B7 1-404 (enzyme)
chain: T1 chain
